PubChem BioAssay AID488969 (Vanderbilt High Throughput Screening Facility, 2010)
In all, about 110,000 compounds were measured (“z-score”: median about -0.1, highest 2% from about 2 on). The list shows a part of the results.

target: Metabotropic glutamate receptor 8 (Rattus norvegicus) (UniProt P70579); assay: mGluR8 Gi/Go-coupled signaling modulation – cell-based, rat, thallium flux, HTS, primary screen (AID 488969); settings: HEK293 rat mGluR8, GIRK (G protein-gated inwardly rectifying potassium channel) thallium flux, FluoZin2; at 10 µM; stronger effect = higher value; submaximal glutamate (EC20) added with thallium
Chain of UniProt P70579 (P70579 whole entry, looked up): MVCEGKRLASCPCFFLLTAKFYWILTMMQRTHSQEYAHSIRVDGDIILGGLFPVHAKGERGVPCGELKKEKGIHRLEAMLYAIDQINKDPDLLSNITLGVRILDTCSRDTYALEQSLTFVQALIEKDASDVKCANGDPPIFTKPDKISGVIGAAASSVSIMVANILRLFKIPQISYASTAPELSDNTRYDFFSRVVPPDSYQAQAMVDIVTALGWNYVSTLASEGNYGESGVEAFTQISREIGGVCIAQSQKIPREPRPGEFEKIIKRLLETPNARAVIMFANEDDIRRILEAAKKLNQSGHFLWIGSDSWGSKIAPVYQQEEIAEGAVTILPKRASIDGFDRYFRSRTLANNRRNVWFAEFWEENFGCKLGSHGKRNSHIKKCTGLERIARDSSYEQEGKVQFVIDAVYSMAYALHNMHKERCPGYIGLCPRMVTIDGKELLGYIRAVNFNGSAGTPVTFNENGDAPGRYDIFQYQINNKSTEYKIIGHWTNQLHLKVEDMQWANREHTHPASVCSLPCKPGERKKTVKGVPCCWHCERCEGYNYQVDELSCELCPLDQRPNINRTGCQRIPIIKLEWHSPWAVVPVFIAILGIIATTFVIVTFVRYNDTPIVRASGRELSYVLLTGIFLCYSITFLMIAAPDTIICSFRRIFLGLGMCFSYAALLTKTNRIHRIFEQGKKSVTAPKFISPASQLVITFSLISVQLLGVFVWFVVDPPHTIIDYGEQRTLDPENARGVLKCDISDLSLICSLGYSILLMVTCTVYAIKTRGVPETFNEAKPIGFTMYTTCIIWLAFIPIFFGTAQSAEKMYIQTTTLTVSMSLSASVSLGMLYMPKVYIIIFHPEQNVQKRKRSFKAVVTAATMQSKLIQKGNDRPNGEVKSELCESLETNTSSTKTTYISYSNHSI

| Compound | z-score |
| --- | --- |
| Cc1ccccc1Nc1nc(N)nc(CN(C)Cc2ccccc2Cl)n1 | 0.157 |
| COc1ccc(SCc2noc(C(=O)NCC3CCCO3)c2C(=O)O)cc1 (stereo not given) | -0.127 |
| CCCCn1nc2cc(C(=O)NC3CCc4ccccc43)ccc2c1OCC (stereo not given) | -0.345 |
| CC(NC(=O)NCCCn1ccnc1)(C(F)(F)F)C(F)(F)F | -0.143 |
| CCCCSc1nnc(C)c(=O)[nH]1 | 0.165 |
| c1ccc(-n2c(Sc3cnccn3)nnc2-c2cccs2)cc1 | 0.0971 |
| COc1ccccc1/C=C/CN1CCN(c2ccccc2)CC1 | 0.0222 |
| COc1ccc(-c2cc(C3CC3)nc(SCC(=O)c3cccs3)c2C#N)cc1 | 0.0502 |
| Cc1c(NC(=O)c2cnn3c2NC(c2ccccc2)CC3C(F)(F)F)c(=O)n(-c2ccccc2)n1C (stereo not given) | -0.13 |
| O=C(CN1C(=O)CSC1=O)N1CCCCC1 | -0.395 |
| CCOCCCNC(=O)N[C@@H](Cc1ccccc1)C(=O)OC | -0.397 |
| COc1cc(/C=N/N=C(/N)c2nonc2N)cc(Br)c1OCc1ccccc1C | 0.466 |
| COc1cccc(C2C(C(=O)c3ccco3)=C(O)C(=O)N2CCN(C)C)c1OC (stereo not given) | 0.026 |
| COc1ccc(-c2c[n+]3c(n2-c2ccccc2)CCCCC3)cc1 | 0.466 |
| O=C(COc1ccc(Cl)cc1)NCCSCc1cccc(Cl)c1 | -0.0859 |
| COc1ccc(-c2csc(NC(=O)COC(=O)c3ccco3)n2)cc1 | -0.243 |
| CCCCNc1nnc(SCC(=O)c2c[nH]c3ccccc23)s1 | -0.12 |
| CC(=O)NC1=NN(C(C)=O)C(C)(c2ccc(Cl)s2)S1 (stereo not given) | 0.182 |
| CC1CC(N(C(=O)c2ccc(Cl)cc2)c2ccccc2)c2ccccc2N1C(=O)c1ccco1 (stereo not given) | -0.00825 |
| COc1ccc(OC)c(CCNC(=O)CS(=O)(=O)Cc2nc(-c3ccc(C)cc3)oc2C)c1 | 0.142 |
| CCN(CC)S(=O)(=O)c1cc(C(=O)Nc2ccccn2)ccc1C | -0.195 |
| COc1ccccc1-n1cnnc1SCC(=O)c1c[nH]c2ccccc12 | -0.14 |

| Compound | z-score |
| --- | --- |
| O=C(Nc1ccc(N2CCCC2)cc1)c1ccc2ccccc2c1 | -0.47 |
| Cc1cccc2cc(COC(=O)c3cccnc3)c(=O)[nH]c12 | -0.159 |
| O=C(Nc1ccc(C(=O)OC[C@@H]2CCCN3CCCC[C@H]23)cc1)c1cccc(Br)c1 | 0.175 |
| O=C(CNS(=O)(=O)c1cccc(C(F)(F)F)c1)Nc1ccccc1F | -0.47 |
| CNC(=O)NC(=O)C(OC(=O)c1cccc(S(=O)(=O)N2CCCCC2)c1)c1ccccc1 (stereo not given) | 0.0137 |
| CCOc1ccc(-n2c(O)c(/C=N/NC(=O)C3COc4ccccc4O3)c3ccccc3c2=O)cc1 (stereo not given) | -1.36 |
| CN(C)S(=O)(=O)N1CCN(S(=O)(=O)c2ccc3ccccc3c2)CC1 | 0.0868 |
| CCOc1cccc(Oc2ncccc2C(=O)/C(C#N)=C/N(C)C)c1 | 0.546 |
| O=C(Nc1ccc2c(c1)OCO2)c1ccc(Br)c(S(=O)(=O)N2CCCC2)c1 | -0.548 |
| Cc1ccc(NC(=O)CN2C(=O)NC3(CCc4ccccc43)C2=O)cc1Cl (stereo not given) | -0.121 |
| COc1ccc(OCCSc2nc(N)cc(N)n2)cc1 | -0.0713 |
| O=S(=O)(c1ccc2ccccc2c1)N(CC(O)CN1CCOCC1)c1ccccc1 (stereo not given) | -0.559 |
| O=C1c2ccccc2C(=O)N1Cc1cc(-c2ccc(Cl)cc2)no1 | 0.23 |
| CC(C)Nc1nc(NC(C)C)nc(N(C)C#N)n1 | -0.0425 |
| O=C(NCCCN1CCN(CCCNC(=O)c2ccc(F)cc2)CC1)c1ccc(F)cc1 | -0.246 |
| CCOC(=O)N1CCC(N2CCN(S(=O)(=O)c3ccc4ccccc4c3)CC2)CC1 | -0.303 |
| O=C(O)C1Cc2ccccc2CN1C(=O)c1ccccc1 (stereo not given) | 0.924 |
| Cc1onc(-c2ccccc2Cl)c1C(=O)Nc1sc2c(c1C(N)=O)CCC(C)C2 (stereo not given) | -0.297 |
| c1ccc(CCc2nn3c(-c4ccncc4)nnc3s2)cc1 | -0.448 |
| O=C(NC1CCCC1)c1ccc2nc[nH]c2c1 | 0.171 |
| O=C(c1ccc(F)cc1)c1c[nH]c(C(=O)NCc2cccnc2)c1 | 0.368 |
| Cc1cc(SCC(=O)c2ccccc2)nc(SCC(=O)c2ccccc2)n1 | -0.648 |

| Compound | z-score |
| --- | --- |
| COc1ccc(Cl)cc1NC(=O)N1CCN(C2CCCCC2)CC1 | 0.115 |
| Cc1ccc(-c2[nH]nc3c2C(C)C(C#N)=C(N)O3)cc1 (stereo not given) | -0.422 |
| O=C(N/N=C/c1c(Nc2cccc(C(F)(F)F)c2)nc2ccccn2c1=O)c1ccccc1 | -0.0933 |
| COc1ccc(CN2C(=O)/C(=C/c3ccncc3)SC2=S)cc1 | -0.151 |
| CC(=O)c1cccc(NC(=O)c2onc(C)c2Cl)c1 | 0.062 |
| O=C(CN1C(=O)c2ccccc2C1=O)NCC1CCCO1 (stereo not given) | -0.00258 |
| CCCC(=O)Nc1ccc(NC(=O)c2ccccc2OC)cn1 | -0.197 |
| COc1ccc(-c2noc(-c3ccccc3F)n2)cc1 | 0.339 |
| CCOc1ccc(C(c2c(C)[nH][nH]c2=O)c2c(C)[nH][nH]c2=O)cc1OC | -0.137 |
| CS(=O)(=O)Nc1ccccc1C(=O)NC1CC2CCC1C2 (stereo not given) | -0.195 |
| COc1ccc(C(=O)Nn2c(C)nnc2-n2nc(C)cc2C)cc1OC | -0.154 |
| CCCCC(=O)Nc1ccc(N2CCN(C(=O)CC)CC2)cc1 | -0.0426 |
| O=C(Nc1ccc(Cl)cc1)[C@@H]1[C@@H]2C(=O)N(c3ccc(Cl)cc3Cl)C(=O)[C@@H]2[C@H]2C=CC=NN21 | -0.503 |
| COCCCn1c(N)c(-c2nc3ccccc3n2C)c2nc3ccccc3nc21 | -0.368 |
| CCOC(=O)CCN(Cc1sccc1C)S(=O)(=O)c1ccc(F)cc1 | -0.113 |
| Cc1ccc(S(=O)(=O)N(Cc2ccccc2)c2ccccc2C(=O)NCc2cccnc2)cc1 | -0.305 |
| CCOC(=O)CSc1nnc(-c2c[nH]c3ccccc23)n1CC | 0.103 |
| CC(C)(C)NC(=O)COc1ccc(CNn2nnnc2N)cc1 | 0.134 |
| O=c1c2c(-c3ccc([N+](=O)[O-])cc3)csc2nc2n1CCC2 | -0.688 |
| O=C1c2ccccc2C(=O)N1CCCc1nc(-c2cccnc2)no1 | -0.111 |
| COc1ccc(CN(C2CCCC2)S(=O)(=O)c2ccc(-n3cnnn3)c(OC)c2)cc1OC | -0.194 |
| CCC(OC(=O)c1nsc(Cl)c1Cl)C(=O)NCc1cccs1 (stereo not given) | 0.3 |

| Compound | z-score |
| --- | --- |
| CN(NS(=O)(=O)c1ccccc1)c1nc2ccccc2nc1C(F)(F)F | -0.586 |
| CCC(C)N1C(=O)/C(=C/c2c(NCCCOC(C)C)nc3c(C)cccn3c2=O)SC1=S (stereo not given) | 0.0924 |
| COc1ccc(/C=C/C(=O)NCC(=O)N/N=C/c2cc(Br)ccc2OC)cc1 | 0.158 |
| COc1ccc(NC(=O)CCCN2C(=O)C3C4C=CC(C4)C3C2=O)c(OC)c1 (stereo not given) | -0.781 |
| CCc1nc2scc(-c3ccccc3)c2c(=O)n1N | -0.0795 |
| Cc1cccc(N2C(=O)SC(SC(=Nc3ccccc3)Nc3ccccc3)C2=O)c1 (stereo not given) | 0.0359 |
| O=C(Nc1ccc2c(c1)OCCO2)C1CCN(C(=O)c2ccc(Cl)cc2)CC1 | 0.135 |
| CCN1CCC2(CC1)N=C(c1ccc(F)cc1)C(=S)N2C(=O)c1ccc(C(C)(C)C)cc1 | 0.0268 |
| COc1ccccc1NC(=O)c1cn(C)c(=O)c2cc(OC)c(OC)cc12 | 0.0576 |
| CC(C)C(NC(=O)c1ccccc1NC(=O)c1ccco1)C(=O)O (stereo not given) | -0.744 |
| Cc1ccc(/C=N/NC(=O)CNC(=O)COc2ccccc2)cc1 | -0.0148 |
| COc1ccccc1C/C(N)=N/OC(=O)COc1ccccc1C | -0.177 |
| Cn1c(Oc2ccccc2)c(C=O)c2ccccc21 | -0.767 |
| COC(=O)c1ccccc1NC(=O)CN(Cc1ccc(Cl)cc1)S(C)(=O)=O | -0.28 |
| CCOc1cc(NC(=S)Nc2ccccc2OC)c(OCC)cc1NC(=O)c1ccccc1C | -0.0989 |
| CCOc1ccc2c(=O)c(Oc3ccccc3)c(C)oc2c1 | -0.244 |
| COCCNc1ncnc2nc[nH]c12 | 0.619 |
| Cc1nn(C)c(C)c1CN(C)C(=O)c1cc2n(n1)C(C(F)(F)F)CC(c1cccs1)N2 (stereo not given) | 0.0534 |
| COc1ccc(Cl)cc1NC(=O)c1ccccc1C | 0.191 |
| COCC(=O)Nc1nnc(C2CCCCC2)s1 | -0.188 |
| COc1cc(C(=O)NCc2ccc(C)cc2)ccc1OCc1c(C)noc1C | -0.694 |
| COC(=O)C1(CCSC)NC(c2ccccc2OC)C2C(=O)N(C)C(=O)C21 (stereo not given) | -0.0404 |

| Compound | z-score |
| --- | --- |
| CN(C)C(=S)SCC(=O)Nc1ccc(Cl)cc1Cl | -0.337 |
| Cc1cc(NC(=O)CSc2nnc(Nc3ccccc3)s2)no1 | -0.129 |
| Cc1cc2c(c(=O)n1CC1CCCO1)C(c1ccco1)C(C#N)=C(N)O2 (stereo not given) | 0.993 |
| CCOC(=O)c1c(NC(=S)Nc2cc([N+](=O)[O-])ccc2OC)sc2c1CCCCC2 | -0.109 |
| Cc1ccc(-n2nc3ccc(NC(=S)NC(=O)/C=C/c4ccco4)cc3n2)cc1 | -0.125 |
| CC(=O)/C(C#N)=C1\NC(=O)C(Cc2ccccc2)S1 (stereo not given) | -0.5 |
| CCOc1ccc(NC(=O)CC2C(=O)N(c3ccccc3)C(=S)N2Cc2ccccn2)cc1 (stereo not given) | -0.194 |
| CCOC(=O)c1cc(-c2ccc(Cl)s2)nc2c1c(C)nn2C | 0.0139 |
| CCOC(=O)C1CCN(S(=O)(=O)c2ccc(OCC(=O)OC)cc2)CC1 | 0.845 |
| COc1ccc2occ(C(C)=O)c2c1 | -1.2 |
| Cc1cc(Cl)ccc1OCC(=O)N1CC(C)CC(C)C1 (stereo not given) | -0.412 |
| CC(=O)c1ccccc1OCCn1nnc(-c2ccc(C)cc2)n1 | -1.03 |
| Cc1cc(Cl)ccc1OCCCC(=O)N1CCN(C)CC1 | -0.88 |
| CCNC(=S)NCc1ccco1 | 0.0142 |
| COc1cccc(N2C(=O)C(O)=C(C(C)=O)C2c2ccc(OC)c(OC)c2)c1 (stereo not given) | -0.0218 |
| CN(C)c1[nH]c(=O)c(C#N)c2c1CCN2Cc1ccccc1 | 0.289 |
| CCOC(=O)c1cc2cc(OC)ccc2nc1C | -0.561 |
| Cc1nn(Cc2ccccc2Cl)c(C)c1C(=O)Nc1nnc(C2CC2)s1 | -0.583 |
| O=C(C1CCCN(S(=O)(=O)c2ccccc2[N+](=O)[O-])C1)N1CCCC1 (stereo not given) | 0.116 |
| O=C(O)c1cc2ccc3ccccc3c2oc1=O | -0.0814 |
| C=C(c1ccc(OCCO)cc1)c1ccc(OCCO)cc1 | 0.26 |
| COc1ccccc1NC=C1C(=O)OC(C)(C)OC1=O | -0.201 |
